# Reference: PubChem BioAssay (Tox21)
# This list was built around the results that the source calls inconclusive (neither active nor inactive); the mix of calls is not that of the screen. For some of these results: Potencies of inconclusive entries are doubtful fits and often do not repeat. Active and inactive are the calls of the source. Unless noted, the call rests on the fitted dose curve; in most records, active means well fitted curve in the direction sought with a large enough effect in the repeat runs; inconclusive means weak or mixed curves; inactive means no such curve, though single readings can be large; an effect the other way counts as inactive or inconclusive.
# Assays:
# [1] = target: Peroxisome proliferator-activated receptor gamma (Homo sapiens) (UniProt P37231); test: qHTS assay to identify small molecule antagonists of the peroxisome proliferator-activated receptor gamma (PPARg) signaling pathway (AID 743191; calls by dose curve; further: on the % scale 0 is the no-effect control and ±100 the full control effect; nearly all actives have a fitted effect of over 30% in size); conditions: HEK293H PPARg-UAS-bla, beta-lactamase ratio, antagonist, 17 h; ratio activity, negative = inhibition: at 62.6 µM (top of the series) unless noted
# Procedure, shortened: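 GeneBLAzer PPARg UAS-bla HEK293H cells, 5 h post-plating, exposed to compounds 17 h at 37C. LiveBLAzer B/G FRET substrate added for 1 h at room temperature; beta-lactamase reporter read by fluorescence intensity.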
# [2] = target: Retinoic acid receptor RXR-alpha (Homo sapiens) (UniProt P19793); test: qHTS assay to identify small molecule agonists of the RXR signaling pathway (AID 1159527; calls by dose curve; further: on the % scale 0 is the no-effect control and ±100 the full control effect; nearly all actives have a fitted effect of over 35% in size); conditions: HEK293T RXRa-UAS-bla, beta-lactamase ratio, 16 h; activation: at 76.8 µM (top of the series) unless noted
# Procedure, shortened: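 GeneBLAzer RXR-alpha-UAS-bla HEK 293T cells in medium with 2% charcoal-stripped FBS, pre-incubated 5 hr at 37 C, then exposed to compounds 16 hr. Beta-lactamase reporter read by FRET substrate, 2 hr room temperature, 460/530 nm emission.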
# [3] = qHTS assay to identify small molecule antagonists of the sonic hedgehog signaling (Shh) pathway (AID 1259369; calls by dose curve; further: on the % scale 0 is the no-effect control and ±100 the full control effect; nearly all actives have a fitted effect of over 45% in size); conditions: NIH/3T3 Gli1-Luc reporter, Shh antagonist, luminescence 24 h; series mostly up to 92.4 µM
# Procedure, shortened: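 Screening used 3T3Gli1-Luc cells at 2,000 per well, compounds delivered in DMSO, and conditioned medium as agonist stimulus; plates incubated 24hr at 37 C and 5% CO2 before a 30min luciferase step.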
# [4] = target: Progesterone receptor (Homo sapiens) (UniProt P06401); test: qHTS assay to identify small molecule antagonists of the progesterone receptor (PR) signaling pathway (AID 1346795; active means well fitted inhibition curve with a large enough effect in the signal ratio in the repeat runs, not every such curve was filed as active; inconclusive means weak or mixed curves; the % refers to the signal ratio; further: on the % scale 0 is the no-effect control and ±100 the full control effect); conditions: PR-UAS-bla HEK293T, beta-lactamase FRET ratio, 16 h; activity change, negative = inhibition: at 92.4 µM (top of the series) unless noted
# Procedure, shortened: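 PR-UAS-bla HEK293T cells carrying a UAS-driven beta-lactamase reporter were plated in medium with 2% charcoal-stripped FBS and rested 6 hr at 37C. Compounds were added with 1 nM R5020 (final) for 16 hr, then FRET substrate loaded 2 hr at room temperature.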
# [5] = qHTS assay to identify small molecule antagonists of the progesterone receptor (PR) signaling pathway - cell viability counter screen (AID 1346798); conditions: PR-UAS-bla HEK293T viability, CellTiter-Glo luminescence, 16 h; series mostly up to 92.4 µM; further: nearly all actives have a fitted effect of over 50% in size; further: potency means the concentration at half of the fitted maximal effect
# Procedure, shortened: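 PR-UAS-bla HEK293T cells in medium with 2% charcoal-stripped FBS were treated with compounds plus R5020 for 16 hr at 37C. Cell viability was then read by CellTiter-Glo luminescence after 30 min at room temperature in the same wells.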
# [6] = qHTS assay to identify small molecule agonists of the progesterone receptor (PR) signaling pathway - cell viability counter screen (AID 1346799; calls by dose curve; further: nearly all actives have a fitted effect of over 45% in size; further: potency means the concentration at half of the fitted maximal effect); conditions: PR-UAS-bla HEK293T viability, CellTiter-Glo luminescence, 16 h; series mostly up to 92.4 µM
# Procedure, shortened: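 PR-UAS-bla HEK293T cells, 3,000 per well in medium with 2% charcoal-stripped FBS, were preincubated 6 hr at 37C, then exposed to compounds for 16 hr; viability was read as CellTiter-Glo luminescence after 30 min at room temperature.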
# [7] = target: Cytochrome P450 2C19 (Homo sapiens) (UniProt P33261); test: Cytochrome P450 Family 2 Subfamily C Member 19 (CYP2C19) small molecule antagonists: luciferase reporter qHTS assay (AID 1671197); conditions: P450-Glo CYP2C19 enzyme, luciferin luminescence, 1 h; series mostly up to 115 µM; further: potency means the concentration at half of the fitted maximal effect; nearly all actives have a fitted effect of over 65% in size
# Procedure, shortened: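 Enzyme-substrate mix with proluciferin substrate (P450-Glo CYP2C19 system) preincubated with compounds 10 min at room temperature; NADPH regeneration solution added, 37C for 1 h; detection reagent stops reaction, luminescence read after 20 min. Ketoconazole positive control.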
# [8] = target: Cytochrome P450 2C9 (Homo sapiens) (UniProt P11712); test: Cytochrome P450 Family 2 Subfamily C Member 9 (CYP2C9) small molecule antagonists: luciferase reporter qHTS assay (AID 1671198); conditions: P450-Glo CYP2C9 enzyme assay, luciferin luminescence; series mostly up to 115 µM; further: nearly all actives have a fitted effect of over 50% in size; further: potency means the concentration at half of the fitted maximal effect
# Procedure, shortened: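 P450-Glo proluciferin substrate with CYP2C9 enzyme; 10 min RT preincubation, then NADPH regeneration 1 h at 37C; luciferin detection reagent 20 min RT, luminescence in relative luminescence units.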
# [9] = target: Cytochrome P450 1A2 (Homo sapiens) (UniProt P05177); test: Cytochrome P450 Family 1 Subfamily A Member 2 (CYP1A2) small molecule antagonists: luciferase reporter qHTS assay (AID 1671199); conditions: P450-Glo CYP1A2 enzyme, luciferin luminescence, 1 h; series mostly up to 115 µM; further: potency means the concentration at half of the fitted maximal effect; nearly all actives have a fitted effect of over 50% in size
# Procedure, shortened: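 Signal from luciferin formed by CYP1A2 from a proluciferin substrate is read as luminescence, expressed in relative luminescence units. Compounds sit with enzyme 10 min, NADPH-driven reaction runs 1 h, all at room temperature.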
# [10] = qHTS assay for small molecule disruptors of the mitochondrial membrane potential (AID 720635); conditions: HepG2 mitochondrial membrane potential, Mito-MPS dye ratio; ratio activity, negative = MMP loss: at 83.2 µM (top of the series) unless noted; further: potency means the concentration at half of the fitted maximal effect
# Procedure, shortened: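 HepG2 cells exposed to compound 1 hr at 37C, then Mito-MPS dye 30 min. Ratio read of aggregate (540/590 nm) versus monomer (490/535 nm) fluorescence.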
# [11] = target: Glucocorticoid receptor (Homo sapiens) (UniProt P04150); test: qHTS assay to identify small molecule antagonists of the glucocorticoid receptor (GR) signaling pathway (AID 720692; active means well fitted inhibition curve with a large enough effect in the signal ratio in the repeat runs, not every such curve was filed as active; inconclusive means weak or mixed curves, or effect the other way; inactive means no such curve, though single readings can be large or run the other way; the % refers to the signal ratio; further: on the % scale 0 is the no-effect control and ±100 the full control effect); conditions: GR-bla HeLa, beta-lactamase FRET ratio, dexamethasone-stimulated, 18 h; activity change, negative = inhibition: at 58.5 µM (top of the series) unless noted
# Procedure, shortened: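 Fluorescence from cleaved LiveBLAzer B/G FRET substrate reports GRE-driven beta-lactamase in HeLa cells; compounds are tested against 5 nM dexamethasone (final) over 18 h at 37 C, substrate incubation 2 h at room temperature.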
# [12] = qHTS assay for identifying genotoxic compounds that show differential cytotoxicity against isogenic chicken DT40 cell lines with known DNA damage response pathways - wild type cell line (AID 743012); conditions: DT40 wild type chicken cells viability, CellTiter-Glo, 40 h; activity change, negative = cytotoxicity: at 68.4 µM (top of the series) unless noted; further: nearly all actives have a fitted effect of over 60% in size; further: potency means the concentration at half of the fitted maximal effect
# Procedure, shortened: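 Quantitative HTS on parental DT40 cells: 40 h compound treatment at 37 C/5% CO2, with viability then determined by CellTiter-Glo luminescence. Values serve as the DNA repair-proficient reference for differential cytotoxicity.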
# [13] = qHTS assay for small molecule agonists of the antioxidant response element (ARE) signaling pathway (AID 743202; active means well fitted activation curve with a large enough effect in the signal ratio in the repeat runs, not every such curve was filed as active; inconclusive means weak or mixed curves, or effect the other way; inactive means no such curve, though single readings can be large or run the other way; the % refers to the signal ratio; further: on the % scale 0 is the no-effect control and ±100 the full control effect); conditions: HepG2 ARE-bla reporter, beta-lactamase FRET, 16 h; activation: at 73.3 µM (top of the series) unless noted
# Procedure, shortened: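 ARE-bla HepG2 cells (beta-lactamase reporter under the antioxidant response element), plated 5 hours, then exposed to compounds 16 hours at 37 C. LiveBLAzer B/G FRET substrate added for 2 hours at room temperature; fluorescence intensity read.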
# [14] = qHTS assay to identify small molecule agonists of the RXR signaling pathway - cell viability counter screen (AID 1159529); conditions: RXR-alpha-bla HEK293T viability, CellTiter-Glo, 16 h; series mostly up to 76.8 µM; further: on the % scale 0 is the no-effect control and ±100 the full control effect; nearly all actives have a fitted effect of over 50% in size
# Procedure, shortened: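 RXR-alpha-UAS-bla HEK 293T cells in medium with 2% charcoal-stripped FBS were preincubated 5 hr, then exposed to compounds for 16 hr at 37 C. Viability was read as CellTiter-Glo luminescence after 30 min at room temperature.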
# [15] = target: Vitamin D3 receptor (Homo sapiens) (UniProt P11473); test: qHTS assay to identify small molecule antagonists of the vitamin D receptor (VDR) signaling pathway (AID 743223; active means well fitted inhibition curve with a large enough effect in the signal ratio in the repeat runs, not every such curve was filed as active; inconclusive means weak or mixed curves, or effect the other way; inactive means no such curve, though single readings can be large or run the other way; the % refers to the signal ratio; further: on the % scale 0 is the no-effect control and ±100 the full control effect); conditions: VDR-UAS-bla HEK293T, beta-lactamase FRET ratio, 16 h; activity change, negative = inhibition: at 61 µM (top of the series) unless noted
# Procedure, shortened: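 VDR-bla cells were plated, incubated 4 h at 37C, then given compound and 1alpha,25-dihydroxyvitamin D3 (3 nM final). After 16 h at 37C, LiveBLAzer B/G FRET substrate was added for 2 h at room temperature and fluorescence read.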
# [16] = target: Cytochrome P450 2D6 (Homo sapiens) (UniProt P10635); test: Cytochrome P450 Family 2 Subfamily D Member 6 (CYP2D6) small molecule antagonists: luciferase reporter qHTS assay (AID 1671196); conditions: P450-Glo CYP2D6 enzyme assay, luciferin luminescence, 1 h; series mostly up to 115 µM; further: nearly all actives have a fitted effect of over 50% in size; further: potency means the concentration at half of the fitted maximal effect
# Procedure, shortened: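 Inhibition of CYP2D6 was gauged by loss of luminescence, since light produced tracks the luciferin generated from a proluciferin substrate. A 10 min room-temperature preincubation preceded 1 h NADPH-supported turnover.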
# [17] = qHTS assay for identifying genotoxic compounds that show differential cytotoxicity against isogenic chicken DT40 cell lines with known DNA damage response pathways - Rev3 mutant cell line (AID 743014); conditions: chicken DT40 Rev3-/- viability, CellTiter-Glo, 40 h; activity, negative = cytotoxicity: at 68.4 µM (top of the series) unless noted; further: potency means the concentration at half of the fitted maximal effect; nearly all actives have a fitted effect of over 55% in size
# [18] = qHTS assay to identify small molecule antagonists of the retinoid acid receptor (RAR) signaling pathway - cell viability counter screen (AID 1159551); conditions: C3RL4 cells viability, ATP luminescence (CellTiter-Glo), 6 h; series mostly up to 92.4 µM; further: on the % scale 0 is the no-effect control and ±100 the full control effect; nearly all actives have a fitted effect of over 35% in size
# Procedure, shortened: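 Following overnight attachment, C3RL4 reporter cells received DMSO-dissolved compounds and then retinol (1 uM final). Six hours later at 37 C, ATP content was measured by CellTiter-Glo luminescence.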
# [19] = target: Estrogen receptor beta (Homo sapiens) (UniProt Q92731); test: qHTS assay to identify small molecule antagonists of the estrogen receptor beta (ER-beta) signaling pathway (AID 1259378; active means well fitted inhibition curve with a large enough effect in the signal ratio in the repeat runs, not every such curve was filed as active; inconclusive means weak or mixed curves, or effect the other way; inactive means no such curve, though single readings can be large or run the other way; the % refers to the signal ratio; further: on the % scale 0 is the no-effect control and ±100 the full control effect); conditions: ER-beta-UAS-bla HEK293T, beta-lactamase FRET ratio, 16 h; activity, negative = inhibition: at 92.4 µM (top of the series) unless noted
# Procedure, shortened: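 ER-beta-UAS-bla HEK293T cells in 2% charcoal-stripped FBS medium treated with compound plus 1nM final 17-beta-estradiol for 16 hr at 37C. Beta-lactamase reporter read by FRET substrate fluorescence after 2 hours at room temperature.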
# Tags describe the fitted curve by direction and shape or compound fluorescence and quenching.
# Chain of UniProt P37231 (P37231 whole entry, looked up): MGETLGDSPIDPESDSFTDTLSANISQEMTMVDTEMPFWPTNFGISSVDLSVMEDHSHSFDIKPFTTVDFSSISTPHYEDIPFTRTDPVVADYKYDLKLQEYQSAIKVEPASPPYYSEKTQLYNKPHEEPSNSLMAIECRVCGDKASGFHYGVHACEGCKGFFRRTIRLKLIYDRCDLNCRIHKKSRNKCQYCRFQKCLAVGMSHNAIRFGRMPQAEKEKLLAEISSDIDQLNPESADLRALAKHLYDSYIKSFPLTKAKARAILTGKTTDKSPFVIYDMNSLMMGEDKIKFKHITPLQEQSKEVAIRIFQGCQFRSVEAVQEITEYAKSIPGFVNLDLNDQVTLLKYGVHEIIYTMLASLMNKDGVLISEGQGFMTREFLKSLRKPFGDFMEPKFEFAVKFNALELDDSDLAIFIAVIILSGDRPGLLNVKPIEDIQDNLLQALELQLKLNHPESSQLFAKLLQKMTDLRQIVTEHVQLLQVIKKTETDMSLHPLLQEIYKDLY
# Chain of UniProt P19793 (P19793 whole entry, looked up): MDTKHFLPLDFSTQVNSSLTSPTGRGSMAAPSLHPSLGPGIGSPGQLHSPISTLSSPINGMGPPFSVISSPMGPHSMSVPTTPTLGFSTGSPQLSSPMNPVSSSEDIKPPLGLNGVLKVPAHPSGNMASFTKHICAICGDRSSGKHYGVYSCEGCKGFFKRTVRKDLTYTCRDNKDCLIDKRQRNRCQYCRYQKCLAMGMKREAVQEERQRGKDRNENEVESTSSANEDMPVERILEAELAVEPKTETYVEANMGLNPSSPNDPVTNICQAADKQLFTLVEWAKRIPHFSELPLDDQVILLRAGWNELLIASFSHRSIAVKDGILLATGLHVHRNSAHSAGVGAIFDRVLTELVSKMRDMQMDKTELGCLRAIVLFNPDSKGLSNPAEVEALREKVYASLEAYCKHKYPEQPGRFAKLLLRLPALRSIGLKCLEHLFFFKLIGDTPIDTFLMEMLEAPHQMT
# Chain of UniProt P11712 (P11712 whole entry, looked up): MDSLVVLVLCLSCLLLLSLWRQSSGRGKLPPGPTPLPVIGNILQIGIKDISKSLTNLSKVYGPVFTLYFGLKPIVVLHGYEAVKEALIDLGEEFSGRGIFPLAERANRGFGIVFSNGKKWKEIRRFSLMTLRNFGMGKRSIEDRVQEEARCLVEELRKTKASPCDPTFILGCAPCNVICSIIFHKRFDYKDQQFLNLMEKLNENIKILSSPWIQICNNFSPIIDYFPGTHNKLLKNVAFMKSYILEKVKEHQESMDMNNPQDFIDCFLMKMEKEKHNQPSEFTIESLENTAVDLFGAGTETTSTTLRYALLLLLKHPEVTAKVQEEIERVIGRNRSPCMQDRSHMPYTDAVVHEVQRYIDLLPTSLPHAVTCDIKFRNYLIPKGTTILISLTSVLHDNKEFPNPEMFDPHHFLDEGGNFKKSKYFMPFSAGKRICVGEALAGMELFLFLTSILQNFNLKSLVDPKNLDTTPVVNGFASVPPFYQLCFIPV
# Chain of UniProt P10635 (P10635 whole entry, looked up): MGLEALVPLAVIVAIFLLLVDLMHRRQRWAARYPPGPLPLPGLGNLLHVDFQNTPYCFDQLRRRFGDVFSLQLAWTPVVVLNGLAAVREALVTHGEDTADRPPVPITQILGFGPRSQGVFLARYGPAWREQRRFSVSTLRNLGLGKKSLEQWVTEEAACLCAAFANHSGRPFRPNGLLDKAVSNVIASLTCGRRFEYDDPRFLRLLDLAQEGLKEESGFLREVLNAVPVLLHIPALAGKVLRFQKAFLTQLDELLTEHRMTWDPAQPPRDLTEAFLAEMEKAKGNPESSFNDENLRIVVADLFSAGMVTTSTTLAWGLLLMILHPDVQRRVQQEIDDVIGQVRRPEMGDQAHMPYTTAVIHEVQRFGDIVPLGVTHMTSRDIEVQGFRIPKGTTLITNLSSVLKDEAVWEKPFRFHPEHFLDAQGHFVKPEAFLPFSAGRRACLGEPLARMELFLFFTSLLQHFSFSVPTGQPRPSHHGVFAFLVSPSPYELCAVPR
# Chain of UniProt P11473 (P11473 whole entry, looked up): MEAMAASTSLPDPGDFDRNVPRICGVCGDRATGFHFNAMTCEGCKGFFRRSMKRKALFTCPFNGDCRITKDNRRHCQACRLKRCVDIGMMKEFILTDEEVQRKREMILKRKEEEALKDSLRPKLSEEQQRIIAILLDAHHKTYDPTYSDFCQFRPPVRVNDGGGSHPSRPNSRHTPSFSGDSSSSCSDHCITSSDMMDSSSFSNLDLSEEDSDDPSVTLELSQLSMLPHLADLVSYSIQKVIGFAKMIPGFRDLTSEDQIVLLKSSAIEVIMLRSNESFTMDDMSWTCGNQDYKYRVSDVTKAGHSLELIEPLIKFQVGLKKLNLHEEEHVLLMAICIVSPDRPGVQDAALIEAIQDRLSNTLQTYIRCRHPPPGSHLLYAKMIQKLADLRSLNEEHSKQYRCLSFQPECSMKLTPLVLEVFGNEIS
# Chain of UniProt P05177 (P05177 whole entry, looked up): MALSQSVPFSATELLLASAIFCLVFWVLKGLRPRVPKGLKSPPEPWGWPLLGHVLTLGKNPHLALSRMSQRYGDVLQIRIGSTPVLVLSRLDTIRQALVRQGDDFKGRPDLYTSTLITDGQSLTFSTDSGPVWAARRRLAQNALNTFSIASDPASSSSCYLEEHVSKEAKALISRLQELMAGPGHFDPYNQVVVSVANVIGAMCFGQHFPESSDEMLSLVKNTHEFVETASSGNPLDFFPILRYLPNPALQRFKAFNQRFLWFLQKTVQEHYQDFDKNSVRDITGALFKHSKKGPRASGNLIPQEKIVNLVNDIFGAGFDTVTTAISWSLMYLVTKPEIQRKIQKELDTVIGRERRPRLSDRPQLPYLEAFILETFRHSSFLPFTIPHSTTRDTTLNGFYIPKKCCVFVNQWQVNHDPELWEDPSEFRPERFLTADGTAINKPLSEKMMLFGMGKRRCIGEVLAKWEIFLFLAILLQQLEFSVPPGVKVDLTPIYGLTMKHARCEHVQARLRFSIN
# Chain of UniProt P06401 (P06401 whole entry, looked up): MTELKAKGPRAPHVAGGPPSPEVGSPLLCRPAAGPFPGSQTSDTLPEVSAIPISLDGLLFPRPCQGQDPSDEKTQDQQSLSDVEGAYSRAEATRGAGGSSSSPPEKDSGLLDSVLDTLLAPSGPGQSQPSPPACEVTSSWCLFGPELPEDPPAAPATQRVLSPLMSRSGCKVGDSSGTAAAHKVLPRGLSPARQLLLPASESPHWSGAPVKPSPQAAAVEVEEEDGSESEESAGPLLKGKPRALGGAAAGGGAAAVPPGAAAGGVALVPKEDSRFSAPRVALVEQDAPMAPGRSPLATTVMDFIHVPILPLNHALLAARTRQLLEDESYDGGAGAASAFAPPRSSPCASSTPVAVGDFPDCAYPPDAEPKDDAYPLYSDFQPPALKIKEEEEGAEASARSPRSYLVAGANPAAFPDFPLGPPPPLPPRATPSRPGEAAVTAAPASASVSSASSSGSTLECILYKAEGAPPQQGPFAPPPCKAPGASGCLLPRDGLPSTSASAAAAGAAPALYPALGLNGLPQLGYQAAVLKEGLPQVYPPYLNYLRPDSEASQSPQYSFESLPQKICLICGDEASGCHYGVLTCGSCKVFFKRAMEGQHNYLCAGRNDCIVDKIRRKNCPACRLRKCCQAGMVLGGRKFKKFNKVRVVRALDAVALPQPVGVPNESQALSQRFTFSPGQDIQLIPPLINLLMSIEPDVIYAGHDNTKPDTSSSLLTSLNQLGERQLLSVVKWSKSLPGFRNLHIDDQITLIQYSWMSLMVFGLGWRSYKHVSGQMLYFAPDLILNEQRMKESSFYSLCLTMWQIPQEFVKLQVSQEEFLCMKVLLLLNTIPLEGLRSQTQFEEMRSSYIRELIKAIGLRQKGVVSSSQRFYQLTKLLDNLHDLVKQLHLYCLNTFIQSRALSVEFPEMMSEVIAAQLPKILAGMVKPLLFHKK
# Chain of UniProt Q92731 (Q92731 whole entry, looked up): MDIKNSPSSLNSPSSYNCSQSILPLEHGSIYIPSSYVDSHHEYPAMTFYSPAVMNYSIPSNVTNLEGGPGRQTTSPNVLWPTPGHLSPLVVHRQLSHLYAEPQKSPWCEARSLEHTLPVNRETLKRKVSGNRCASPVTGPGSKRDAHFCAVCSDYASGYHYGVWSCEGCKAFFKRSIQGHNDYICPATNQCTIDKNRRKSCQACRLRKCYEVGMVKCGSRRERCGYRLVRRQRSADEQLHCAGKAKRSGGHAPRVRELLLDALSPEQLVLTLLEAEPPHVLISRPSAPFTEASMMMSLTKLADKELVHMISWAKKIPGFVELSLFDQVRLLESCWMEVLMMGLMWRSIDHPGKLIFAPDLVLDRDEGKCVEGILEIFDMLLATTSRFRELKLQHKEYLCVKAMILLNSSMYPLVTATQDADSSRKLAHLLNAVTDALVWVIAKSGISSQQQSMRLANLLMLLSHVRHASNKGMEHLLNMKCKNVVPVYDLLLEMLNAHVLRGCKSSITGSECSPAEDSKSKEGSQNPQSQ
# Chain of UniProt P33261 (P33261 whole entry, looked up): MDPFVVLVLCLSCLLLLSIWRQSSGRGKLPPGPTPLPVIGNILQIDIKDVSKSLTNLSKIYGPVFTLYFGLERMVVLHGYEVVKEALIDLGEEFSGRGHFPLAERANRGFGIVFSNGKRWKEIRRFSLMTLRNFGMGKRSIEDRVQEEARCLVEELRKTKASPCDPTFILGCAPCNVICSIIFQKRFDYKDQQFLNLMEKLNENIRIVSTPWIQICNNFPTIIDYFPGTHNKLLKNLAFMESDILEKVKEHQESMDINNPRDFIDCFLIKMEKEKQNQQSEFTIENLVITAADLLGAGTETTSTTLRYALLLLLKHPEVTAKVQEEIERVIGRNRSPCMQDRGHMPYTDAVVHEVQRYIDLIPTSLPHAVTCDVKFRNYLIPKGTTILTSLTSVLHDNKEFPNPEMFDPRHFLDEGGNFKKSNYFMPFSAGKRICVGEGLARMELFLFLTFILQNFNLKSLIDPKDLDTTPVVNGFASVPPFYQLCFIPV
compound,measurement,setting,value
CCOC(=O)C(=O)CCCCCCl,Potency,[1],inactive
same,Potency,[2],inactive
same,Potency,[3],inactive
same,Potency,[4],inactive
same,Potency,[5],inactive
same,Potency,[6],inactive
same,Potency,[7],active: 17.4 µM
same,Potency,[8],"inconclusive: 34.7 µM [inhibitor, partial curve]"
same,Potency,[9],"inconclusive: 28.8 µM [inhibitor, partial curve, poor fit]"
CCc1occc(=O)c1O,"ratio activity, negative = MMP loss",[10],inconclusive: 37.8%
same,"activity change, negative = inhibition",[11],inconclusive: -0.0733%
same,Potency,[12],inactive
same,"ratio activity, negative = inhibition",[1],inconclusive: 17.7%
same,activation,[13],inconclusive: 22.5%
same,Potency,[14],inactive
same,Potency,[8],inactive
O=S(=O)(O)c1cc(O)c2ccc(Nc3ccccc3)cc2c1,Potency,[10],"inconclusive: 15.4 µM [inhibitor, partial curve]"
same,Potency,[12],"inconclusive: 68.6 µM [rising, single point]"
same,Potency,[15],inactive
same,Potency,[14],inactive
same,Potency,[16],"inconclusive: 63.3 µM [inhibitor, partial curve]"
CCOC(=O)C(=O)OCC,Potency,[17],"inconclusive: 9.69 µM [cytotoxic, full curve]"
same,Potency,[14],inactive
COc1ccc(/C(C)=C/C(=O)O)c(OC)c1,"ratio activity, negative = inhibition",[1],inconclusive: 18.1%
same,activation,[2],inconclusive: 1.36% [at 35.3 µM]
same,Potency,[3],inactive
same,Potency,[16],inactive
Cc1cc(C)n(CO)n1,"ratio activity, negative = inhibition",[1],inconclusive: 5.05%
same,"activity change, negative = inhibition",[15],inconclusive: 5.81%
same,activation,[2],inconclusive: 18.8%
same,Potency,[5],"inconclusive: 0.433 µM [cytotoxic, full curve, poor fit]"
same,Potency,[16],inactive
CCOC(C)(C)C,"ratio activity, negative = MMP loss",[10],inconclusive: -4.19% [at 95.3 µM]
same,activation,[13],inconclusive: 31.4% [at 94.8 µM]
same,Potency,[2],inactive
C=C[Si](C)(C)O[Si](C)(C)C=C,Potency,[10],inactive
same,Potency,[12],"inconclusive: 38.6 µM [rising, partial curve, poor fit]"
same,Potency,[14],inactive
same,Potency,[18],inactive
same,Potency,[6],"inconclusive: 68.6 µM [cytotoxic, partial curve, poor fit]"
O=C1CCCCO1,"ratio activity, negative = inhibition",[1],inconclusive: -9.16%
same,Potency,[13],inactive
same,Potency,[2],inactive
same,Potency,[19],inactive
same,Potency,[8],"inconclusive: 39.9 µM [inhibitor, partial curve, poor fit]"
same,Potency,[9],"inconclusive: 35.6 µM [inhibitor, partial curve]"
